We go through 86 sequences from the supplement of paper PMC3334620.

Whole data set: some 33,000 sequences, median “E-score (-0.5 to 0.5)” near -0.041, cut for the highest 2% near 0.37. This is one part of the list.

This assay concerns the target T1, Ecm22 (UniProt Q05958).
T1 sequence: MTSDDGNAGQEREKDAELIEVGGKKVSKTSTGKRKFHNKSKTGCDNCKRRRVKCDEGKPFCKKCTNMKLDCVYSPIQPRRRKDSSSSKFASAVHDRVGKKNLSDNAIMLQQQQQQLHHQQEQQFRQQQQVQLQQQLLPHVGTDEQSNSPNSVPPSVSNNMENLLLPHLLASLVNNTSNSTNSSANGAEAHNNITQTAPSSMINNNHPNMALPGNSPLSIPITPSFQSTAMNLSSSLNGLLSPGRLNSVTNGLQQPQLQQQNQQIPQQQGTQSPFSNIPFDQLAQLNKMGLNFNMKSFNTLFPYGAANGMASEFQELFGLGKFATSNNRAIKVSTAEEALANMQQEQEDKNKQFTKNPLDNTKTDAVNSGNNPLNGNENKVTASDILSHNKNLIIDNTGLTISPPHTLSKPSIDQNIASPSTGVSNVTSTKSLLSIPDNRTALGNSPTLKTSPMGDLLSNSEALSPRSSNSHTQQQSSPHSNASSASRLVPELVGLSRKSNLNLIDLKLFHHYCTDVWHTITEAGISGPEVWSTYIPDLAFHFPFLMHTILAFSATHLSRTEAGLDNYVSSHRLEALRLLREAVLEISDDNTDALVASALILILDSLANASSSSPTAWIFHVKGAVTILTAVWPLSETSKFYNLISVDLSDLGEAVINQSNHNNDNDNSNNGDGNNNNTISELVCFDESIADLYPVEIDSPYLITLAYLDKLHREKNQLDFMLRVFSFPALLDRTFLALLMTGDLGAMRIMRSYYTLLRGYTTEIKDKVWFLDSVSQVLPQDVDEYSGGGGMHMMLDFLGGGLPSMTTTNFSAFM
The experiment in a line: PBM E-score (8-mer binding enrichment) (E-score (-0.5 to 0.5)); higher = stronger / more preferred TF binding; most listed sequences are background and not binding sites. The settings on record: protein concentration: 200 nM; construct: GST-full length. The method in brief: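 For each ungapped eight-base word taken together with its reverse complement, the Universal PBM Analysis Suite assigned an E-score. Binding data came from GST-tagged yeast transcription factors, applied at about 100-200 nM, on universal all-10-mer Agilent arrays made double-stranded by primer extension. Fluorescent anti-GST marked bound protein, and scans were normalised with masliner.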
Take CGTTACAG: the “PBM E-score” value was found to be 0.169. Take GTTACACA: the “PBM E-score” value is -0.0371. The same measure for AGGGTTCA: -0.224.

For the sequence CAACTCTC, the “PBM E-score” value is -0.11. The same measure for CCAATCCC: -0.114. The same measure for ACTATCTC: -0.0244. The same measure for CGTATGTC: 0.342; for AAGTTAAC: 0.132; for CAGTGCAA: -0.0245. For GTTTCTAA, the “PBM E-score” value was 0.211. As to TACACCCA, the “PBM E-score” value was -6e-05.

As to CAAATTTG, the “PBM E-score” value amounted to 0.129.

As to GTTTACTA, the “PBM E-score” value was determined as 0.182. In the case of GGCGTTTA it was 0.166; in that of CACCATAC, 0.13. Regarding GTTGACGA, the “PBM E-score” value is -0.0872.

With ATAAATTA, the “PBM E-score” value is 0.326. In the case of ACCAGTCA it was -0.218; in that of CTATCAAC, 0.0893; in that of GCTTCCCA, 0.00671. In the case of TTAATGAA it was 0.0772; in that of CTATGCTA, -0.116; in that of AAAGCTTC, -0.111. As to ATATCGAT, the “PBM E-score” value came out at 0.136. With ATGTTGAC, the “PBM E-score” value was -0.0435.

As for CAGGGGGA, the “PBM E-score” value was -0.365.

As to GAGTCTAC, the “PBM E-score” value was -0.0119. The same measure for CCTACACG: -0.0384; for CCTTGCGC: -0.158; for CCAAAGGG: -0.183. In the case of ACAGCAGA it was 0.152; in that of GGACATCC, -0.143; in that of AGCTCCCC, -0.165. In the case of ACATATGT it was -0.0583. As to CGATCTGA, the “PBM E-score” value came to 0.0252. In the case of ACAGCGGC it was -0.036; in that of ACGGTGTC, 0.106. In the case of GACCGCTC it was -0.0038. In the case of CTCTCCAG it was -0.235; in that of CCGGCTTA, -0.171; in that of AAACCCGT, 0.0436. For the sequence CCCTACAG, the “PBM E-score” value is -0.267. In the case of GATTCAGA, the “PBM E-score” value was -0.0139. The same measure for ATCTTCAC: -0.0804; for ACGCTTCA: -0.111; for AGGACAAA: 0.00676. The same measure for GCGCGATA: 0.114. For TGCAGAAA, the “PBM E-score” value stood at 0.228. With GACCCTGA, the “PBM E-score” value is -0.126. The same measure for AAACCGCA: -0.0384; for AGTAGGTG: -0.34; for TCGGGACA: -0.0251. With CATCTATC, the “PBM E-score” value was -0.132. Regarding CCCGGTTC, the “PBM E-score” value turned out to be 0.0413. Take CACGTTCA: the “PBM E-score” value is -0.131. For the sequence AAATTGCA, the “PBM E-score” value was found to be 0.068. The same measure for ATTGAGTC: -0.162; for GTCTACGA: 0.304.

For AGTTGTCC, the “PBM E-score” value was -0.0556. The same measure for GTCTAACA: -0.339; for GTACCGTA: 0.364; for CTCTATCA: -0.234.

As to GATTGGGC, the “PBM E-score” value was -0.165. In the case of GGAAAACA it was -0.0128; in that of ACTGACCT, -0.0986. Take CAAACGTA: the “PBM E-score” value came out at 0.186. In the case of AGGCTACC it was -0.215. The same measure for ATGTTTTG: 0.0401.

For CAGTACGG, the “PBM E-score” value worked out at 0.27. As to GCTTGCCC, the “PBM E-score” value was -0.293. The same measure for GCGTCAGC: -0.0491; for CGCTATAC: 0.337. In the case of GTCTCAGA it was -0.305; in that of CGATAAAC, 0.259. In the case of GATTAATA it was 0.0922; in that of TAAAACAA, -0.00922. Turning to GGGGAATA, the “PBM E-score” value is -0.213. The same measure for ATAACGAC: 0.203. In the case of CCAACGAC it was 0.0154; in that of ACCAGACC, 0.138. With GAGAATTA, the “PBM E-score” value is -0.0719. In the case of ACCTCCGG it was -0.113. In the case of AGAATCCA it was -0.14; in that of GATTAGTA, 0.0853.

Take CGACTCGC: the “PBM E-score” value was 0.284. As to AAGATATT, the “PBM E-score” value was -0.183.
